The chains are these.
B1: LINE1-mini (parent)
chain: GGCAGAGCUCAACACAGCGUGGCAAAGUGGCUGUGGCUAGACUGCC

Read counts are not given, so values of variants with three or more changes are uncertain.

The data set covers variants of B1. The data set is described as follows: self-cleavage, relative activity (ratio to wild type); higher = more cleavage; in vitro, sequencing; the parent is a self-cleaving ribozyme.
For the variant A4U C42U U43G, the self-cleavage was found to be 0.03.
Take A4U A14G U20C: the self-cleavage amounted to 0.36.
Take A4U A12G G19U: the self-cleavage was 0.
Take A4U A6U C10A C13A G17C C18G G35A: the self-cleavage amounted to 0.02.
In the case of G5A C10A C37U it was 0.01; in that of A4U U9A G19C U38C A41U, 0.1.
In the case of A4U G29A C46A it was 0.08; in that of G5A C13G A24U, 0.
The result for A4U G17U C31G reads 0.04.
A4U C18G U28C U38G: the self-cleavage is 0.01.
Turning to A4U C8U G29A, the self-cleavage was 0.03.
Turning to G5A C18G G22A G27C U38C, the self-cleavage was found to be 0.17.
For A4U G5C U34A G36A, the self-cleavage came out at 0.03.
In the case of A4U C15G U28G U38A it was 0.04; in that of A4U A6G A24G G27C, 0.05; in that of A4U A26C A41G, 0.
As for A4G U32G G40A, the self-cleavage worked out at 0.26.
In the case of A4G U32G G40C it was 0.03.
As for G5A A16G G17U G36U, the self-cleavage is 0.07.
The result for A4U U28A A41G reads 0.03.
In the case of A4U A12C C23G, the self-cleavage is 0.01.
G5A C8U C15U G17A: the self-cleavage turned out to be 0.55.
Regarding A4U G5U G19A, the self-cleavage worked out at 0.05.
With A4U A14G G19C G21U C31U C37G, the self-cleavage came out at 0.03.
Turning to G5A A11U C46G, the self-cleavage is 0.03.
On to A4U G5A A16G U20A G30C C46G, for which the self-cleavage was 0.01.
As to G5A C10A A12G C23U C42G, the self-cleavage was 0.
The result for A4U G5U U9A G21U reads 0.14; that for G5A C15G G22A, 0.06; that for A4U A11C U34A, 0.05.
The result for A4U A12U A25U A41U reads 0.01; that for A4U C10A U32G G36C C37A, 0.04; that for G5A C10A G21U, 0.03.
Regarding A4U A11C G30A C46U, the self-cleavage is 0.03.
With A4U C8G C13A G40C, the self-cleavage came out at 0.2.
In the case of A4U C8G U9G A11C C15A G21A G27U G33A it was 0.01.
Consider A4U C10U G29U, for which the self-cleavage amounted to 0.28.
A4U G7A U20A: the self-cleavage was determined as 0.09.
For A4U U28G C31G, the self-cleavage is 0.
With A4U A6G C13G, the self-cleavage worked out at 0.48.
For A4U G5U A6C G17C, the self-cleavage worked out at 0.04.
For A4U G7U U9A U38A, the self-cleavage amounted to 0.24.
On to A4U U20A G36A C46G, for which the self-cleavage was 0.05.
In the case of G5A C18A C23U G33A it was 0.03; in that of A4G U34C C37A, 0.06; in that of G5A A6G C15U C42A, 0.05.
As for A4U C18U C45U, the self-cleavage came to 0.06.
The result for G5A C10A C18U G35A reads 0.03.
For the variant A4U A25G U32A, the self-cleavage amounted to 0.02.
The result for A4U G17A G21C reads 0.13.
With A4U A12C G27C U43C, the self-cleavage was found to be 0.02.
In the case of A4U G7C A41U it was 0.12; in that of G5A A16G G44U, 0.03; in that of A4U C23U A26C C42A, 0.02.
Consider A4U G17U U20G A25C, for which the self-cleavage came to 0.04.
With A4U C15G G22C, the self-cleavage was determined as 0.
With A4U A11C C23A G27A, the self-cleavage worked out at 0.01.
The result for G5A C10U A12G A14U U28C G33U reads 0.02; that for A4U G19U G27C U34C C46G, 0.03; that for A4U G17U G29U G30U A39U, 0.03.
Turning to A4U U20G U43C, the self-cleavage worked out at 0.08.
For G5A C10U A14U G27U, the self-cleavage came to 0.03.
The result for A4U G7C A26G C46A reads 0.18; that for A4U U20A G35U C46A, 0.01; that for G5A C15G U32G, 0.02.
As for A4U G36U G40C C42U, the self-cleavage came out at 0.1.
For A4G U32G C37A C45G, the self-cleavage was found to be 0.05.
Turning to A4U G5U G17A G21A U34A U38C, the self-cleavage came out at 0.02.
In the case of G5A C13G A16G G21U G30U G33U A41G, the self-cleavage came out at 0.01.
For the variant G5A C15U A39G, the self-cleavage was 0.02.
Regarding G5A A6C C15U G19U, the self-cleavage worked out at 0.45.
Take G5A A6C U20A G35A: the self-cleavage worked out at 0.06.
Take A4U C8G G29U U32A: the self-cleavage worked out at 0.06.
Turning to G5A A6C A11U A12G U32G G35C, the self-cleavage came out at 0.01.
On to G5A A6U C8G G30U G40A, for which the self-cleavage was 0.27.
Turning to A4U U9G G19A A26U U38G G40A, the self-cleavage was determined as 0.03.
On to G5A C10A G27C G29U G35C G44C, for which the self-cleavage was determined as 0.
For the variant A4U A11C C23G G35U, the self-cleavage worked out at 0.04.
In the case of A4U A12U G19U G27C U34G it was 0.02; in that of G5A A11C G21U G35U, 0.1.
With A4U C8A A12G G35A, the self-cleavage is 0.08.
Regarding A4U A11U G17U, the self-cleavage was 0.06.
With A4U C31U U38C, the self-cleavage is 0.03.
For the variant A4U C31U U38G, the self-cleavage came to 0.
The result for A4U C13G U38G G40U reads 0.02; that for A4U C13U G21A U43G, 0.
In the case of A4U C15U U20A A39C it was 0.13; in that of G5A A14G G17A C18A G44C, 0.05.
In the case of A4U C23G C31A it was 0.05; in that of A4U G19C A24G C42G, 0.08.
For the variant A4U G17A A24C G36U, the self-cleavage turned out to be 0.02.
G5A C10G G40U: the self-cleavage came to 0.
For G5A C8G G29C G35C, the self-cleavage was 0.02.
In the case of G5A C8A C46U it was 0.18; in that of G5A C15A C18G, 0.04.
The result for G5A C15U A24G A25C G36U reads 0.05; that for A4U A25C G27U G40C, 0.01; that for G5A C10U G19U, 0.06.
Take G5A C15A U20G: the self-cleavage came to 0.04.
For the variant A4G G44U C46U, the self-cleavage turned out to be 0.35.
In the case of G5A A6G G22A A24C, the self-cleavage worked out at 0.01.
For the variant A4U U28A G44U C45U, the self-cleavage was found to be 0.07.
In the case of A4G U9G U34A C37U, the self-cleavage turned out to be 0.15.
In the case of A4U G17U G40U C42A it was 0.16.
As for A4G U9A C10G A14U C18A G33C U38A, the self-cleavage worked out at 0.
On to A4U C18G A39G G40U, for which the self-cleavage came out at 0.42.
On to G5A A14C C37U A41C, for which the self-cleavage amounted to 0.05.
Take G5A A16C C23U G29A U32A: the self-cleavage was found to be 0.03.
As to A4U G5U G7A G44U, the self-cleavage was determined as 0.26.
In the case of A4U U28C U32A A39G, the self-cleavage came to 0.07.
In the case of G5A C8G A11U C42A it was 0.02.
As for G5A C13G C37A U38A, the self-cleavage amounted to 0.1.
In the case of A4U C15A G19U A24U A25C G30C G36U it was 0; in that of A4U G5U G21C G29C, 0.01; in that of A4U C15U C42U, 0.13.
Consider A4U G29U C46G, for which the self-cleavage was 0.07.
In the case of G5A A11C C37U G40A C45G, the self-cleavage stood at 0.
On to A4U C10A A14C C15U C31A, for which the self-cleavage stood at 0.02.
Turning to G5A A11U G22U U32C, the self-cleavage was 0.04.
In the case of G5A A6G G17U A26C C37A it was 0.01.
The result for A4U C23G U28G reads 0.04; that for A4U C8G C23A U34A G36C, 0.02; that for G5A A12U C23U G33C, 0.01.
Consider A4U C23A G29U, for which the self-cleavage was determined as 0.17.
With G5A A12U A25C, the self-cleavage came to 0.34.
On to A4U G17U C23A A24C G33U, for which the self-cleavage came out at 0.02.
A4U U34C G40U C45G: the self-cleavage is 0.02.
The result for G5A A16U C37G C46G reads 0.05.
Regarding A4U C18A G33C A39U C42G, the self-cleavage is 0.01.
In the case of G5A C8U G21C A24G A25G A41C it was 0.19; in that of G5A C8G G22C A25U U43C, 0.01; in that of A4U C18A G22C G33C, 0.03.
For G5A A6G C31G, the self-cleavage came to 0.05.
Regarding A4U C8G C18A G21A G33C U34A G36U, the self-cleavage was found to be 0.08.
On to A4U U20G C23U G35U, for which the self-cleavage stood at 0.03.
Take G5A C8A A24C: the self-cleavage came out at 0.97.
In the case of A4U U9A U34G A41U it was 0.13; in that of A4U C8A C15A G21C G30C C46G, 0.09; in that of A4U U32A G35U A41C C42G, 0.05.
Take G5A C13G A16G U34C U43A: the self-cleavage turned out to be 0.02.
In the case of A4U C8U A12G G30A C31A C45A it was 0.
In the case of G5A A16U G33C G44A it was 0.12.
The result for A4U A24U G27A G29C reads 0.12; that for G5A A6U G7U, 0; that for A4U C8A C13A G19C G33A C37A, 0.03.
A4G U9C G30U C31A: the self-cleavage was 0.03.
Take G5A C18U G21U C46A: the self-cleavage is 0.05.
Consider G5A A24C U34C A39C, for which the self-cleavage is 0.02.
For the variant A4U C37U G40C, the self-cleavage was found to be 0.05.
With A4G U9C C45U, the self-cleavage amounted to 0.01.
In the case of A4U U9C G22C C46A, the self-cleavage turned out to be 0.01.
As to A4U A26U U32G, the self-cleavage worked out at 0.04.
For the variant G5A A12U C13U G21C, the self-cleavage amounted to 0.13.
In the case of A4U G22U G36A it was 0.5; in that of A4U U9A A12U C46G, 0.06; in that of G5A A6U A26U A39C G40U, 0.12.
For A4U C23A A25G G35U C46A, the self-cleavage was determined as 0.09.
For the variant A4U G17A G22A G27U G36U, the self-cleavage was found to be 0.15.
As for A4U G22C A26U, the self-cleavage came out at 0.05.
As to G5A A6C U20C C31A, the self-cleavage came to 0.05.
Consider A4U C13G A24C U32G, for which the self-cleavage worked out at 0.01.
As for A4U G21C G29C G30A, the self-cleavage was 0.12.
Turning to G5A C10U G35C, the self-cleavage is 0.02.
For the variant G5A C15A G19A U38G U43A C45A, the self-cleavage is 0.
In the case of A4U G5C A12U C31G A41C it was 0.01; in that of G5A C13A A24G G30U C31A, 0.07.
Take A4U G17C C31U U32G: the self-cleavage is 0.11.

These data come from the RNAGym collection of RNA variant scans (doi:10.7554/elife.90254).
